Reference: article PMC10320511
Results are given in words; binding and its absence hold for the method and conditions named. In cells and extracts the contact can be indirect. Some binding calls cover weakened binding; strength is not graded here. For some assays here: Where a sequence is shown, tags or fusion partners need not be part of it.

Protein sequences, listed by entry. Tags and fused reporters are not part of them.
UniProt Q01371: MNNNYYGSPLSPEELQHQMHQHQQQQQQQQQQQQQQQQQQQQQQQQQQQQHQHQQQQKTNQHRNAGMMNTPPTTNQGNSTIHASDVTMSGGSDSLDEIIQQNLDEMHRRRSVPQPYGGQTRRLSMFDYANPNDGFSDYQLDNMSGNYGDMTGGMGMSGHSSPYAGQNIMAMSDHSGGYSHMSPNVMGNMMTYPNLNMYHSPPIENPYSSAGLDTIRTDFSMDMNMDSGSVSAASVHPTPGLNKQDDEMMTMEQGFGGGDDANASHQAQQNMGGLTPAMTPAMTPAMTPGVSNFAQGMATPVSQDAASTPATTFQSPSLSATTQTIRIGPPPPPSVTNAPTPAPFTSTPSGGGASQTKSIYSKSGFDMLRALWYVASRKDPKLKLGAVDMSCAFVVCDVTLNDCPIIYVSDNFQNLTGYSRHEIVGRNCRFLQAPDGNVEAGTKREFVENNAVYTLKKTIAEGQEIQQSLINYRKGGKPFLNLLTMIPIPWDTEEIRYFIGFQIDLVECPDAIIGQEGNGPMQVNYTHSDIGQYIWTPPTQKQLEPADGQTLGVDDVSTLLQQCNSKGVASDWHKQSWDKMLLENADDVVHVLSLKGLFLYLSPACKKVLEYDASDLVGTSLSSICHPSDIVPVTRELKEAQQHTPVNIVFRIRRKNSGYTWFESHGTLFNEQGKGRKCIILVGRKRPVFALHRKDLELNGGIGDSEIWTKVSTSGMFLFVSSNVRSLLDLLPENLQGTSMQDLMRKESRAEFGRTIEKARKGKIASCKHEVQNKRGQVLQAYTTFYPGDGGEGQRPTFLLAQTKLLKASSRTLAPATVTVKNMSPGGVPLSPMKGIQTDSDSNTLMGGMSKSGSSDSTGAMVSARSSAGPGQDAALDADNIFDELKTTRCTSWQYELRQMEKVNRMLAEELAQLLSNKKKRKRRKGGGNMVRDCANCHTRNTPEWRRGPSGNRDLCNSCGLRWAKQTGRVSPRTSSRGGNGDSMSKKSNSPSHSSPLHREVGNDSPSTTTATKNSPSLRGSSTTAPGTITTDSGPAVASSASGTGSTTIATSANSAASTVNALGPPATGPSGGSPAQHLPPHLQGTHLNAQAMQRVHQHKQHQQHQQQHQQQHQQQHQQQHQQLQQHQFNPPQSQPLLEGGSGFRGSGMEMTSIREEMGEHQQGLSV

Tests used:
[1] = target: T1, FRQ Δ200–249, V5H6-tagged (Neurospora crassa) (UniProt P19970); experiment: co-IP; V5H6-tagged FRQ (wild type or mutant) pulled down with V5 agarose from Neurospora lysate (cultures in the light, 25 °C); 50 mM Hepes pH 7.4, 137 mM NaCl, 10% glycerol, 0.4% NP-40; 4 °C, 2 h; Western blot with FRQ, FRH, WC-1 and WC-2 antibodies
T1 sequence: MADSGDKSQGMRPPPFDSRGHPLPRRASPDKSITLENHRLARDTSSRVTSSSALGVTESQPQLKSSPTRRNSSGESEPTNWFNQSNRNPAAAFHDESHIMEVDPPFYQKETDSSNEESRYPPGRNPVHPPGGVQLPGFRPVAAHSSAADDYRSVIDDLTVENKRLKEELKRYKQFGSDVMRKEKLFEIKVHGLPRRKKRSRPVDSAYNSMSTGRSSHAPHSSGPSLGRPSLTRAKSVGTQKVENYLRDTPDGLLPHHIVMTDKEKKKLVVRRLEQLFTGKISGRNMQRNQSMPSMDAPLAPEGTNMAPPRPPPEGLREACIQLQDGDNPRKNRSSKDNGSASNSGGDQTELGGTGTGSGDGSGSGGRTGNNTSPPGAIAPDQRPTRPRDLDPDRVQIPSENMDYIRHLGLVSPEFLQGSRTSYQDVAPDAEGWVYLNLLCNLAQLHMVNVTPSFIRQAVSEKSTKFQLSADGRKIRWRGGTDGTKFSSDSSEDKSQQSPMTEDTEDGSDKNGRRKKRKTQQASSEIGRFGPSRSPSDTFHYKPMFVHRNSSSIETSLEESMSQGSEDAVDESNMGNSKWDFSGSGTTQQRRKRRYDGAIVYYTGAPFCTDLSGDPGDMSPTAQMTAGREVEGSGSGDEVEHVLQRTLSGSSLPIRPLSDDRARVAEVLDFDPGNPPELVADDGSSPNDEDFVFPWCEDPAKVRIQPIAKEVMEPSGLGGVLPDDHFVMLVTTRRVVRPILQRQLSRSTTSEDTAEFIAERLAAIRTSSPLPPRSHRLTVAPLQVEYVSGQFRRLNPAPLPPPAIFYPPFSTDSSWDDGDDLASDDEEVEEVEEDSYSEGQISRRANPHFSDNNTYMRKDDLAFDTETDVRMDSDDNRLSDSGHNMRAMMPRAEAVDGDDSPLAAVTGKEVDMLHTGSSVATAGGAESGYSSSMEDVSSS

[2] = target: T2, FRQ D874A, D875A, E876A, E877A, E879A, E880A, E882A, E883A, D884A, V5H6-tagged (Neurospora crassa) (UniProt P19970); experiment: as above
T2 sequence: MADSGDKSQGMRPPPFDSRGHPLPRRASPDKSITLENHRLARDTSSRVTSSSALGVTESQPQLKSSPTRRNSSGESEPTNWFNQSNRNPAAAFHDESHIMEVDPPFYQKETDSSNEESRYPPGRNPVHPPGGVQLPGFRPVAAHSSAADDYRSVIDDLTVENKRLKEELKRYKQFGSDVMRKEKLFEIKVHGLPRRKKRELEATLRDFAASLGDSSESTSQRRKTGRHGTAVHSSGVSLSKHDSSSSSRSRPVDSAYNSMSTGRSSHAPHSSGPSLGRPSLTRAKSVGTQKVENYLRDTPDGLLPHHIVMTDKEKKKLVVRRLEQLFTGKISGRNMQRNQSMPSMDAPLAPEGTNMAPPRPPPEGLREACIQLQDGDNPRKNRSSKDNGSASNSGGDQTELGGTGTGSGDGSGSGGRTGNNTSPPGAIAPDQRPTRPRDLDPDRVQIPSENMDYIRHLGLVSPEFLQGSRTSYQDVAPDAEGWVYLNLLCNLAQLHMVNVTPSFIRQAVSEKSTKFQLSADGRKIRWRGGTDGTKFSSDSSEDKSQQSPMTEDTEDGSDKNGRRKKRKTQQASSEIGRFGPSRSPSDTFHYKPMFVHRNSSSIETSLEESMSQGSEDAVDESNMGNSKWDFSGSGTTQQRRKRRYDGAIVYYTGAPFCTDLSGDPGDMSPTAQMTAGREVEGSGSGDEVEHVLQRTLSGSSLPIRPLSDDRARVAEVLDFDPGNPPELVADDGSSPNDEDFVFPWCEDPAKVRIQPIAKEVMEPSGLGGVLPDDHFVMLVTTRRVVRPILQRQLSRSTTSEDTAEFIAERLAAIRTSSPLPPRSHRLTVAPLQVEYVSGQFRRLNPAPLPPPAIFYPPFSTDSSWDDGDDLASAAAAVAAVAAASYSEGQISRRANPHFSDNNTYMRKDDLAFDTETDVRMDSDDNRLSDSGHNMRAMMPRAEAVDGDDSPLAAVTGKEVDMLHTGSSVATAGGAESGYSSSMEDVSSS

[3] = target: White Collar-1 tagged with V5 (WC-1^V5) (Neurospora crassa) (UniProt Q01371); experiment: co-IP; WC-1^V5 pulled down with V5 resin from Neurospora lysate (light, 25 °C, 24 h); 137 mM NaCl in lysis and wash buffers; Western blot with WC-1, WC-2, FRQ and FRH antibodies

Q: With “White Collar-1 (WC-1) (from UniProt Q01371 1-1167)” as the molecule, how does the binding [1] read?
A: no binding

B1: White Collar-2 (WC-2) (protein, UniProt P78714 1-530)
chain: MSHGQPPPGSSMYGFGAMGMGSGMGSGMGSGMGTGMGTGMGTGMSASQMTSDPQDMMSLLDTSVFPGFDGMSMSLDVGDSMSNPFTPVSVPPPLPAGNAGPSHVGVCGGHGAPDQLFSPDDLIATSMSSAGPMIATPTTTTSGPSGGPSSGGGSTLTEFTKRRNWPAKVVEELQDWEHILDANGRIKHVSPSVEPLTGYKPPEIIDLFLRDLIHPDDVGVFTAELNEAIATGSQLRLFYRFRKKDGNWTIFETVGHAHIAAAKFAPNPQNQSPFCQAVFMMARPYPTKNAGLLDSFLEHKIENERLKRRIAELRREEQEEQEESHRTWRMSQEGRSDVTPSDDTATQMGMTPFYIPMNAQADVMMPPPSQPASSLNIALTRENLEGIAGSRPDSIREKMLRYEGNHADTIEMLTGLKYQEGERSHGITTGNASPTLIKGDAGIAIPLDRDPRTGEKKKKIKVAEEYVCTDCGTLDSPEWRKGPSGPKTLCNACGLRWAKKEKKKNANNNNNGGGIGGHNDIHTPMGDHMG
Q: How did the binding [2] turn out when B1 was run?
A: binds weakly

Q: And the binding [3]?
A: binds

B2: FRQ-interacting RNA helicase (FRH) (protein, UniProt Q1K502 1-1106)
chain: MDDLFEVFEEQPRAQKKRKASPDVEMADGAAAAAPVANAAAAVTHPQAQAAPAPQKDNIDNNDNNNNNTTTSAVQPTIPNGDAAAAADDVQSPQSPHGLGDNKRRKKTDEAEPIMTDAFQTAESREVTGAQGFAPTEGESIVLSHNIQHQVALPPDLDYEYIPLSEHKPPAEPARTYSFKLDPFQALSVASIEREESVLVSAHTSAGKTVVAEYAIAQCLKKNQRVIYTSPIKALSNQKYRDFQAEFGDVGLMTGDVTINPTASCLVMTTEILRSMLYRGSEIMREVAWVVFDEIHYMRDKIRGVVWEETIILLPDKVRYVFLSATIPNAFQFAEWIAKIHRQACHVVYTDFRPTPLQNYFFPAGGKGILLIVDEKGNFKENNFNQAMAMIEEKKGTDSNDWSAKQKGKGKNKKTNKGGEAADEKADIAKIIKMILKKNFQPVIVFNFSKRECEQMALASSSMKFNAPDEENMVNKVFENALASLSEDDKNLPQISNILPLLRKGIGVHHSGLLPILKETIEILFQEGLIKVLFATETFSIGLNMPARTVVFTQVTKWDGQQRRPLTSSEYIQMAGRAGRRGLDDRGIVIMMVDDKLEPETARAIVVGNQDKLNSAFHLGYNMVLNLLRIEAISPEYMLERCFFQFQNAASVPQLERELISLQQERDAIIIPDESIVKDYYGVRQQLEEYNKDMVFVIQHPQNCLGFFQEGRLIHIKSPSGVDYGWGVLIKHIQRQTPKNGQPPYPEQESYVLDVLLKVSGDFNPKTRGEGPMPEGIMPAGKDSKNARWEVVPCLLNCLRALGQLRVFLPKRLESADEKDGVGKAVDEISRRFPDGIPILDPMENMGINDDSFKKLLRKIEVLESRLVANPLHNSPLLVELWNQYSLKMQLGEQIKEKKKAIARAHSVAQLDELKSRKRVLRRLGFINDAEVVQMKARVACEISSTEGHELLLAELLFNRFFNELSPEICACILSCFIFDEKIETQALKEELAKPFREIQAQARIIAKVSAESKLDVNEDEYVQSLKWQLMETVLAWAQGRPFSEICKMTNVYEGSLIRLFRRLEELLRQMAEAARVMGSEELKDKFELSLSKIRRDIVSFNSLYL
Q: What does the source list for B2?
A: binding [2]: binds; binding [3]: binds
